Experimental data reported in the supplement of paper PMC4967469.

Legend:
Experiment in all cases: Viability of human cancer cell lines after 72 h of drug (GDSC screen)
Tamoxifen = compound: CC/C(=C(\c1ccccc1)c1ccc(OCCN(C)C)cc1)c1ccccc1 [Tamoxifen]; settings: top dose 5 µM
Description: (§1)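 Human cancer cell lines in 384-well plates, medium with 10% serum, drug for 72 h over a 256-fold dose range (nine 2-fold or five 4-fold steps up to the top dose). Adherent lines were fixed and stained with the nucleic acid dye Syto60, suspension lines read with resazurin; signal relative to control wells, capped at 0 and 100%. One two-parameter sigmoid per drug and line, fitted in a mixed model over all curves with the slope shared within a line.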

VNLG/124 = compound: CCCC(=O)OCc1ccc(OC(=O)/C=C(C)/C=C/C=C(C)/C=C/C2=C(C)CCCC2(C)C)cc1 [VNLG/124]; settings: top dose 5.12 µM; top dose inferred
Description: as §1

Bleomycin = compound: Cc1c(N)nc([C@H](CC(N)=O)NC[C@H](N)C(N)=O)nc1C(=O)N[C@H](C(=O)N[C@H](C)[C@@H](O)[C@H](C)C(=O)N[C@H](C(=O)NCCc1nc(-c2nc(C(=O)NCCC[S+](C)C)cs2)cs1)[C@@H](C)O)[C@@H](OC1OC(CO)C(O)C(O)C1OC1OC(CO)C(O)C(OC(N)=O)C1O)c1cnc[nH]1 [Bleomycin]
Description: as §1

Masitinib = compound: Cc1ccc(NC(=O)c2ccc(CN3CCN(C)CC3)cc2)cc1Nc1nc(-c2cccnc2)cs1 [Masitinib]; settings: top dose 20 µM
Description: as §1

LAQ824 = compound: O=C(/C=C/c1ccc(CN(CCO)CCc2c[nH]c3ccccc23)cc1)NO [LAQ824]; settings: top dose 1.024 µM; top dose inferred
Description: as §1

OSI-930 = compound: O=C(Nc1ccc(OC(F)(F)F)cc1)c1sccc1NCc1ccnc2ccccc12 [OSI-930]; settings: top dose 10.24 µM
Description: as §1

BX-912 = compound: O=C(Nc1cccc(Nc2ncc(Br)c(NCCc3cnc[nH]3)n2)c1)N1CCCC1 [BX-912]; settings: top dose 10.24 µM; top dose inferred
Description: as §1

NSC-87877 = compound: O=S(=O)(O)c1ccc2cc(N=Nc3cc(S(=O)(=O)O)c4cccnc4c3O)ccc2c1 [NSC-87877]; settings: top dose 16 µM; top dose inferred
Description: as §1

[1] = top dose 50 µM, screen: GDSC drug entry 1378, top dose inferred
[2] = top dose 64 µM, screen: GDSC drug entry 190

Row | Cell Line | AUC (Tamoxifen) | IC50 (Tamoxifen) [µM] | AUC (VNLG/124) | IC50 (VNLG/124) [µM] | AUC (Bleomycin; [1]) | IC50 (Bleomycin; [1]) [µM] | AUC (Bleomycin; [2]) | IC50 (Bleomycin; [2]) [µM] | AUC (Masitinib) | IC50 (Masitinib) [µM] | AUC (LAQ824) | IC50 (LAQ824) [µM] | AUC (OSI-930) | IC50 (OSI-930) [µM] | AUC (BX-912) | IC50 (BX-912) [µM] | AUC (NSC-87877) | IC50 (NSC-87877) [µM]
1 | HLE (liver, adherent) | 0.964 | > 5 | 0.95 | > 5.12 | 0.533 | 3.82 | 0.486 | 3.67 | 0.969 | > 20 | 0.5 | 0.0641 | 0.984 | > 10.2 | 0.978 | > 10.2 | 0.971 | > 16
2 | J82 (bladder, adherent) | 0.94 | > 5 | 0.977 | > 5.12 | 0.508 | 3.28 | 0.276 | 0.927 | 0.948 | > 20 | 0.556 | 0.0908 | 0.979 | > 10.2 | 0.985 | > 10.2 | 0.979 | > 16
3 | GCT (soft tissue, adherent) | 0.988 | > 5 | 0.988 | > 5.12 | 0.083 | < 0.195 | 0.538 | 5.03 | 0.922 | > 20 | 0.699 | 0.221 | 0.98 | > 10.2 | 0.928 | > 10.2 | 0.988 | > 16
4 | KYSE-270 (oesophagus, adherent) | 0.975 | > 5 | 0.988 | > 5.12 | 0.5 | 3.12 | 0.253 | 0.894 | 0.899 | 18.8 | 0.287 | 0.0179 | 0.987 | > 10.2 | 0.919 | > 10.2 | 0.979 | > 16
5 | NCI-H2030 (lung adenocarcinoma, adherent) | 0.939 | > 5 | 0.978 | > 5.12 | 0.616 | 6.81 | 0.513 | 4.36 | 0.874 | > 20 | 0.462 | 0.0498 | 0.953 | > 10.2 | 0.918 | > 10.2 | 0.983 | > 16
6 | A204 (rhabdomyosarcoma, adherent) | 0.944 | > 5 | 0.951 | > 5.12 | 0.208 | 0.322 | 0.166 | 0.267 | 0.452 | 0.89 | 0.349 | 0.0215 | 0.902 | > 10.2 | 0.56 | 0.982 | 0.886 | > 16
7 | CAL-54 (kidney, adherent) | 0.954 | > 5 | 0.973 | > 5.12 | 0.205 | 0.362 | 0.041 | < 0.25 | 0.976 | > 20 | 0.415 | 0.0363 | 0.985 | > 10.2 | 0.882 | > 10.2 | 0.949 | > 16
8 | NCI-H2228 (lung adenocarcinoma, adherent) | 0.961 | > 5 | 0.93 | > 5.12 | 0.775 | 31 | 0.342 | 1.16 | 0.914 | > 20 | 0.369 | 0.0232 | 0.943 | > 10.2 | 0.942 | > 10.2 | 0.932 | > 16
9 | 786-0 (kidney, adherent) | 0.975 | > 5 | 0.978 | > 5.12 | 0.317 | 1.01 | 0.067 | < 0.25 | 0.751 | 6.14 | 0.229 | 0.0113 | 0.973 | > 10.2 | 0.913 | > 10.2 | 0.77 | 5.63
10 | MZ7-mel (melanoma, adherent) | 0.985 | > 5 | 0.985 | > 5.12 | 0.694 | 11.2 | 0.158 | 0.337 | 0.864 | 18.6 | 0.369 | 0.0274 | 0.967 | > 10.2 | 0.951 | > 10.2 | 0.963 | > 16
11 | NCI-H1793 (lung adenocarcinoma, adherent) | 0.974 | > 5 | 0.982 | > 5.12 | 0.847 | > 50 | 0.748 | 28.4 | 0.972 | > 20 | 0.848 | > 1.02 | 0.959 | > 10.2 | 0.971 | > 10.2 | 0.979 | > 16
12 | RD (rhabdomyosarcoma, adherent) | 0.967 | > 5 | 0.972 | > 5.12 | 0.799 | 26.6 | 0.786 | 30.5 | 0.916 | > 20 | 0.455 | 0.0476 | 0.985 | > 10.2 | 0.917 | > 10.2 | 0.976 | > 16
13 | LC-2-ad (lung adenocarcinoma, adherent) | 0.983 | > 5 | 0.973 | > 5.12 | 0.471 | 2.6 | 0.1 | < 0.25 | 0.776 | 8.17 | 0.234 | 0.0106 | 0.941 | > 10.2 | 0.734 | 3.03 | 0.985 | > 16
14 | BCPAP (thyroid, adherent) | 0.988 | > 5 | 0.986 | > 5.12 | 0.399 | 1.69 | 0.356 | 1.67 | 0.873 | 16.1 | 0.383 | 0.0315 | 0.956 | > 10.2 | 0.866 | 7.72 | 0.989 | > 16

A lower IC50 marks a more sensitive line; where the fit passes the top or lowest dose, that dose stands as a limit. For AUC the same curve is integrated over the 256-fold range of doses and scaled to a fraction; it is 1 without any effect and falls as sensitivity rises. For part of these data: An inferred top dose was calculated from the reported fits. For part of these data: Where an entry number is given, a second screen of the drug exists; the two often differ.
